Measured values taken from PubChem BioAssay AID652104 (National Center for Advancing Translational Sciences (NCATS), 2013).
Screen size: about 410,000 compounds; about 7,200 (1.8%) were called active. The inconclusive results got no clear call from the source; some entries with a clear call stand among them for comparison. The call rests on the fitted dose curve; in most records, active means well fitted activation curve with a large enough effect; inconclusive means small, poorly fitted or top-dose-only effect, or another doubt; inactive means no such curve, though single readings can be large or run the other way. Potencies of inconclusive entries are left out as doubtful fits.

Experiment: qHTS of TDP-43 Inhibitors; further: nearly all actives have a fitted effect of over 50% in size; on growth rescue (activation): % of control where 0% means no effect
Settings: TDP-43 expressing yeast growth rescue, BacTiter-Glo, 24 h; growth rescue (activation): at 46.1 µM (top of the series) unless noted
Outline: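 Yeast expressing TDP-43 (pregrown in raffinose, seeded at OD600=0.02 in galactose medium) exposed to compounds 24 hr at 30 deg C. Growth read by BacTiter-Glo luminescence; rescue of toxicity appears as increased signal.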
Potency means the concentration at half of the fitted maximal effect; tags describe the fitted curve by direction and shape.

Compound | Potency | growth rescue (activation)
COc1cc(-c2nnc(COc3ccc4ccccc4c3)o2)cc(OC)c1OC | active: 28.2 µM | –
COc1ccccc1N1CCN(C(=O)C(Sc2ccccc2)c2ccccc2)CC1 (stereo not given) | inconclusive [activator, single point] | –
CC(C)c1ccc(NC(=O)C(Cc2ccccc2)NS(=O)(=O)c2ccc3c(c2)oc(=O)n3C)cc1 (stereo not given) | inactive | –
CCCCCCC1CC(CCc2nc(=S)[nH][nH]2)C(=O)O1 (stereo not given) | inactive | –
COc1ccc(OC)c(NC(=O)Cc2coc3ccc(C)cc23)c1 | inconclusive [activator, single point] | –
COc1ccc(NC(=O)c2sc3nc4c(cc3c2N)CN(Cc2ccccc2)CC4)cc1OC | inconclusive [activator, partial curve] | –
COc1ccc(C(=O)NC(=S)NCc2ccccc2)cc1 | inconclusive [activator, single point] | –
Cc1cc(C)c2c(=O)c3c(oc2c1)C(=O)N(Cc1ccco1)C3c1ccccc1F (stereo not given) | inactive | –
CCOc1ccccc1N1CCN(C(=O)c2ccc3[nH]c4c(c3c2)CCCC4)CC1 | inconclusive [activator, single point] | –
N#Cc1cnc(NOCc2ccc(Cl)cc2)nc1 | inconclusive [activator, single point] | –
OC(CN1CCN(c2ccc(F)cc2)CC1)c1ccc(Cl)cc1 (stereo not given) | inactive | –
COc1ccc(-c2cc(C(=O)Oc3cccc(C)c3C)c3ccccc3n2)cc1 | inactive | –
COc1ccc(C=CC(=O)c2ccc3cc(OC)c(OC)cc3c2)cc1OC | inconclusive [activator, single point] | –
COc1ccc(NC(=O)CCc2nnc3n(CC(C)C)c(=O)c4ccccc4n23)cc1OC | inconclusive [activator, partial curve] | –
COc1ccc(C(C)(O)c2nc(-c3ccccc3C)cs2)cc1 (stereo not given) | inconclusive [activator, partial curve] | –
COc1cc(/C=C2\C(=O)ON=C2c2ccc(Cl)cc2)ccc1O | inconclusive [activator, single point] | –
COC(=O)c1ccc(NC(=S)NCCc2ccccc2C)cc1 | – | inconclusive: 42.2% [activator]
CCOc1ccc(CC(=O)NCc2ccc3c(c2)CCN3C(C)=O)cc1OCC | inactive | –
O=S1(=O)N[C@@H](Cc2ccccc2)COc2cc(Br)ccc21 | inconclusive [activator, single point] | –
O=C(Nc1ccon1)Nc1cc(Cl)ccc1Cl | inconclusive [activator, partial curve] | –
